Test results as given in the supplement of paper PMC4604168 (melanoma cell lines).
The other results are listed elsewhere or left out. Single values are uncertain, as repeats are few or missing.

system: UACC257; experiment: cell count relative to DMSO control; melanoma cells; higher = more viable cells; details: library dose: standard library concentration; 72 h
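Further: cells treated in 1,536-well plates, then fixed and DAPI-stained, with nuclei counted from automated high-throughput microscope images.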

| SMILES | cell count [%] |
| --- | --- |
| NC(=O)c1ccc(N(C(N)=O)c2c(F)cccc2F)nc1-c1ccc(F)cc1F + CN(C)S(=O)(=O)c1ccc2c(c1)/C(=C/c1cc3c([nH]1)CCCC3)C(=O)N2 [SU6656] (first compound 2 µM, partner dose 2 µM) | 85.2 |
| CCCCCCCCc1ccc(CCC(N)(CO)CO)cc1 [fingolimod] + COCC[n+]1c2c(n(Cc3cnccn3)c1C)C(=O)c1ccccc1C2=O [YM155] (first compound 10 µM, partner dose 0.002 µM) | 37 |
| CC(C)(C)c1cnc(CSc2cnc(NC(=O)C3CCNCC3)s2)o1 + COc1ccc2c(c1)CCC1C2CCC2(C)C(NCCCCCCN3C(=O)C=CC3=O)CCC12 [U73122] (first compound 0.05 µM, partner dose 2 µM) | 108 |
| CC(C)(C)c1cnc(CSc2cnc(NC(=O)C3CCNCC3)s2)o1 + COc1ccc(COc2ccc(Cc3cnc(N)nc3N)cc2OC)cc1 [GW2580] (first compound 0.05 µM, partner dose 5 µM) | 80.1 |

system: UACC62; experiment: as above; details: library dose: standard library concentration; 72 h

| SMILES | cell count [%] |
| --- | --- |
| COc1cc2c(Oc3ccc4[nH]c(C)cc4c3F)ncnc2cc1OCCCN1CCCC1 [cediranib] + N#Cc1c(O)c2c(-c3ccc(-c4ccccc4O)cc3)csc2[nH]c1=O [A769662] (first compound 2 µM, partner dose 10 µM) | 119 |
| CC(C)(C)c1cnc(CSc2cnc(NC(=O)C3CCNCC3)s2)o1 + CN(C)S(=O)(=O)c1ccc2c(c1)/C(=C/c1cc3c([nH]1)CCCC3)C(=O)N2 [SU6656] (first compound 0.05 µM, partner dose 2 µM) | 54.1 |
| COc1cc2c(Oc3ccc4[nH]c(C)cc4c3F)ncnc2cc1OCCCN1CCCC1 [cediranib] + COc1ccc(COc2ccc(Cc3cnc(N)nc3N)cc2OC)cc1 [GW2580] (first compound 2 µM, partner dose 5 µM) | 89.7 |
| CCCCCCCCc1ccc(CCC(N)(CO)CO)cc1 [fingolimod] + OCCn1cc(-c2cnc3nnn(Cc4ccc5ncccc5c4)c3n2)cn1 [PF04217903] (first compound 10 µM, partner dose 5 µM) | 33 |
| NC(=O)c1ccc(N(C(N)=O)c2c(F)cccc2F)nc1-c1ccc(F)cc1F + Clc1ccc(Nc2nnc(Cc3ccncc3)c3ccccc23)cc1 [vatalanib] (first compound 2 µM, partner dose 10 µM) | 68.1 |
| CCc1ccc(CCOc2ccc(CC3SC(=O)NC3=O)cc2)nc1 (centres undefined) [pioglitazone] + CC(C)CCN1c2nc(Nc3cc(F)c(O)c(F)c3)ncc2N(C)C(=O)C1C [BID1870] (first compound 10 µM, partner dose 1 µM) | 92.2 |
| Cc1ccc(NC(=O)c2cccc(N(C)C)c2)cc1NC(=O)c1ccc(O)cc1 + CN(C)S(=O)(=O)c1ccc2c(c1)/C(=C/c1cc3c([nH]1)CCCC3)C(=O)N2 [SU6656] (first compound 10 µM, partner dose 2 µM) | 89.5 |
| NC(=O)c1ccc(N(C(N)=O)c2c(F)cccc2F)nc1-c1ccc(F)cc1F + Cc1cc(N2CCOCC2)cc2[nH]c(-c3c(NC[C@@H](O)c4cccc(Cl)c4)cc[nH]c3=O)nc12 [BMS536924] (first compound 2 µM, partner dose 1 µM) | 128 |
| Cc1ccc(NC(=O)c2cccc(N(C)C)c2)cc1NC(=O)c1ccc(O)cc1 + CCCCCCCCCCCC1=C(O)C(=O)C=C(O)C1=O [Embelin] (first compound 10 µM, partner dose 6 µM) | 110 |
| CN(NC(=O)CC(=O)NN(C)C(=S)c1ccccc1)C(=S)c1ccccc1 + Cn1cc(/C=C2\C(=O)Nc3cccnc32)c2ccccc21 [GW441756] (first compound 0.03 µM, partner dose 2 µM) | 44.9 |
| CCCCCCCCc1ccc(CCC(N)(CO)CO)cc1 [fingolimod] + O=C(O)[C@@H]1[O][Sb](=[O])([O][Sb]2(=[O])[O][C@H]([C@H](O)CO)[C@H](O)[C@H](C(=O)O)[O]2)[O][C@H]([C@H](O)CO)[C@@H]1O [stibogluconate] (first compound 10 µM, partner dose 10 µM) | 22 |
| Cc1ccc(NC(=O)c2cccc(N(C)C)c2)cc1NC(=O)c1ccc(O)cc1 + COc1cc(N2CCC(N3CCN(C)CC3)CC2)ccc1Nc1ncc(Cl)c(Nc2ccccc2S(=O)(=O)C(C)C)n1 [NVP-TAE684] (first compound 10 µM, partner dose 0.4 µM) | 103 |
| COc1cc2c(Oc3ccc4[nH]c(C)cc4c3F)ncnc2cc1OCCCN1CCCC1 [cediranib] + COc1cc(N2CCC(N3CCN(C)CC3)CC2)ccc1Nc1ncc(Cl)c(Nc2ccccc2S(=O)(=O)C(C)C)n1 [NVP-TAE684] (first compound 2 µM, partner dose 0.4 µM) | 84.4 |
| COc1cc2c(Oc3ccc4[nH]c(C)cc4c3F)ncnc2cc1OCCCN1CCCC1 [cediranib] + Cn1cc(/C=C2\C(=O)Nc3cccnc32)c2ccccc21 [GW441756] (first compound 2 µM, partner dose 2 µM) | 83.6 |
| COc1cc2c(Oc3ccc4[nH]c(C)cc4c3F)ncnc2cc1OCCCN1CCCC1 [cediranib] + Oc1cc(-c2nc(-c3ccccc3)[nH]c2-c2ccncc2)ccc1Cl [L779450] (first compound 2 µM, partner dose 1 µM) | 51.4 |
| NC(=O)c1ccc(N(C(N)=O)c2c(F)cccc2F)nc1-c1ccc(F)cc1F + Cc1nc(Nc2ncc(C(=O)Nc3c(C)cccc3Cl)s2)cc(N2CCN(CCO)CC2)n1 [dasatanib] (first compound 2 µM, partner dose 0.02 µM) | 76.5 |
| CC(C)(C)c1cnc(CSc2cnc(NC(=O)C3CCNCC3)s2)o1 + c1cc(-c2cnn3cc(-c4ccc(OCCN5CCCCC5)cc4)cnc23)ccn1 [Dorsomorphin] (first compound 0.05 µM, partner dose 2 µM) | 58.8 |
| CC(C)(C)c1cnc(CSc2cnc(NC(=O)C3CCNCC3)s2)o1 + C[C@@H]1CCN(C(=O)CC#N)C[C@@H]1N(C)c1ncnc2[nH]ccc12 [CP690550] (first compound 0.05 µM, partner dose 5 µM) | 72 |
| CC(C)(C)c1cnc(CSc2cnc(NC(=O)C3CCNCC3)s2)o1 + Oc1nc(-c2ccc(C(F)(F)F)cc2)nc2c1CSCC2 [XAV939] (first compound 0.05 µM, partner dose 10 µM) | 92.4 |
| NC(=O)c1ccc(N(C(N)=O)c2c(F)cccc2F)nc1-c1ccc(F)cc1F + C=C(c1ccc(C(=O)O)cc1)c1cc2c(cc1C)C(C)(C)CCC2(C)C [Bexarotene] (first compound 2 µM, partner dose 10 µM) | 90.1 |
| CCc1ccc(CCOc2ccc(CC3SC(=O)NC3=O)cc2)nc1 (centres undefined) [pioglitazone] + N#Cc1c(O)c2c(-c3ccc(-c4ccccc4O)cc3)csc2[nH]c1=O [A769662] (first compound 10 µM, partner dose 10 µM) | 104 |
| CC(C)(C)c1cnc(CSc2cnc(NC(=O)C3CCNCC3)s2)o1 + Cc1cc([N+](=O)[O-])ccc1NS(=O)(=O)c1cc(Cl)ccc1Cl [FH535] (first compound 0.05 µM, partner dose 5 µM) | 67.5 |
| NC(=O)c1ccc(N(C(N)=O)c2c(F)cccc2F)nc1-c1ccc(F)cc1F + CN(c1ncccc1CNc1nc(Nc2ccc3c(c2)CC(=O)N3)ncc1C(F)(F)F)S(C)(=O)=O [PF562271] (first compound 2 µM, partner dose 0.4 µM) | 78.7 |
| Cc1ccc(NC(=O)c2cccc(N(C)C)c2)cc1NC(=O)c1ccc(O)cc1 + Cc1cc(N2CCOCC2)cc2[nH]c(-c3c(NC[C@@H](O)c4cccc(Cl)c4)cc[nH]c3=O)nc12 [BMS536924] (first compound 10 µM, partner dose 1 µM) | 113 |
| Cc1ccc(NC(=O)c2cccc(N(C)C)c2)cc1NC(=O)c1ccc(O)cc1 + Cn1cc(/C=C2\C(=O)Nc3cccnc32)c2ccccc21 [GW441756] (first compound 10 µM, partner dose 2 µM) | 96.7 |
| CC(C)(C)c1cnc(CSc2cnc(NC(=O)C3CCNCC3)s2)o1 + OCCn1cc(-c2cnc3nnn(Cc4ccc5ncccc5c4)c3n2)cn1 [PF04217903] (first compound 0.05 µM, partner dose 5 µM) | 79 |
| NC(=O)c1ccc(N(C(N)=O)c2c(F)cccc2F)nc1-c1ccc(F)cc1F + CCCCCCCCc1ccc(CCC(N)(CO)CO)cc1 [fingolimod] (first compound 2 µM, partner dose 10 µM) | 26.5 |
| NC(=O)c1ccc(N(C(N)=O)c2c(F)cccc2F)nc1-c1ccc(F)cc1F + C[C@@H](Oc1cc(-c2cnn(C3CCNCC3)c2)cnc1N)c1c(Cl)ccc(F)c1Cl [Crizotinib] (first compound 2 µM, partner dose 1 µM) | 74.7 |
| CCCCCCCCc1ccc(CCC(N)(CO)CO)cc1 [fingolimod] + C=C(c1ccc(C(=O)O)cc1)c1cc2c(cc1C)C(C)(C)CCC2(C)C [Bexarotene] (first compound 10 µM, partner dose 10 µM) | 12.3 |
| NC(=O)c1ccc(N(C(N)=O)c2c(F)cccc2F)nc1-c1ccc(F)cc1F + O=C(O)c1ccc(-c2c[nH]c3ncc(-c4ccccc4)cc23)cc1C1CCCC1 [GSK650394] (first compound 2 µM, partner dose 0.8 µM) | 109 |
